Data as given in paper PMC9090332, “Reconstitution of surface lipoprotein translocation through the Slam translocon” (eLife, 2022).
Results are given in words; binding and its absence hold for the method and conditions named. For some assays here: Binding seen in cells or lysates may run through a third protein. Some entries that bind do so weakly or less than the wild type. Where a sequence is shown, tags or fusion partners need not be part of it.

Protein sequences, listed by entry. Tags and fused reporters are not part of them. Residues count along the entry.
UniProt P02787, residues 20-698: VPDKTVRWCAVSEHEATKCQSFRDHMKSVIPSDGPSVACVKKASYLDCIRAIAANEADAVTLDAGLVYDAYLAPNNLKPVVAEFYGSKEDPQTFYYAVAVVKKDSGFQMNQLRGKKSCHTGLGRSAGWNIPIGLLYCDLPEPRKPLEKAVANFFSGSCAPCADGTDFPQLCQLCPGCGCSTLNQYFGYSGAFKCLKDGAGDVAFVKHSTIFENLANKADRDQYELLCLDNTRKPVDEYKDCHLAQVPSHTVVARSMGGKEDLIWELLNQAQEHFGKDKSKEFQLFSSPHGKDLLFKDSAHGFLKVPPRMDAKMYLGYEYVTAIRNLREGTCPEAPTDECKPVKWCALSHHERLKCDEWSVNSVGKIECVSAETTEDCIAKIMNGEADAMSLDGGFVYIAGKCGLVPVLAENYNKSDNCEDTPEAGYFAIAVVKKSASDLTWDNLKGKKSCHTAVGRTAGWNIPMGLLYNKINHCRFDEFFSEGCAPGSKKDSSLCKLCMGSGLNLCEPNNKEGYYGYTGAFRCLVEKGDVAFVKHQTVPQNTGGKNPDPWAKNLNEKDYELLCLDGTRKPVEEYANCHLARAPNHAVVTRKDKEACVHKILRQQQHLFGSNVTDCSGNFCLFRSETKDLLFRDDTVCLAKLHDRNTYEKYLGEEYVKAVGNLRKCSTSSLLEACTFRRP
UniProt P0ABZ6, residues 21-428: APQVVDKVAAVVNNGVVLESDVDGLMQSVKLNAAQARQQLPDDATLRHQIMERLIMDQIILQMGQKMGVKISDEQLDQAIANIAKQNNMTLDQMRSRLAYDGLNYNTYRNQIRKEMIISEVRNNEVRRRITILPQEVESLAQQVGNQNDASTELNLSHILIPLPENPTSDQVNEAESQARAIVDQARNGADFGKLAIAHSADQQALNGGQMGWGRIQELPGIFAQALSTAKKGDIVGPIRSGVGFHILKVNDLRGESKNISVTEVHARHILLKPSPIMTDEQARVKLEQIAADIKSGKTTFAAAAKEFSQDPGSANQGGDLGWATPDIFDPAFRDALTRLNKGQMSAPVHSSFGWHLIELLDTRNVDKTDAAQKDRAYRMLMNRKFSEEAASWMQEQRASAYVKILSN

Key:
[1] = target: T1, Moraxella catarrhalis transferrin binding protein B, C-terminal flag-tag (Moraxella catarrhalis) (UniProt P0DTW7); experiment: far-Western, overlay or dot blot; 0.5 μl TbpB (1 mg/ml) spotted on nitrocellulose, blocked with 5% skim milk, developed with biotinylated human transferrin (50 μg/ml) and streptavidin-conjugated HRP; both purified
T1 sequence (chain, lipidated (processed by Lgt, Lsp, and Lnt)): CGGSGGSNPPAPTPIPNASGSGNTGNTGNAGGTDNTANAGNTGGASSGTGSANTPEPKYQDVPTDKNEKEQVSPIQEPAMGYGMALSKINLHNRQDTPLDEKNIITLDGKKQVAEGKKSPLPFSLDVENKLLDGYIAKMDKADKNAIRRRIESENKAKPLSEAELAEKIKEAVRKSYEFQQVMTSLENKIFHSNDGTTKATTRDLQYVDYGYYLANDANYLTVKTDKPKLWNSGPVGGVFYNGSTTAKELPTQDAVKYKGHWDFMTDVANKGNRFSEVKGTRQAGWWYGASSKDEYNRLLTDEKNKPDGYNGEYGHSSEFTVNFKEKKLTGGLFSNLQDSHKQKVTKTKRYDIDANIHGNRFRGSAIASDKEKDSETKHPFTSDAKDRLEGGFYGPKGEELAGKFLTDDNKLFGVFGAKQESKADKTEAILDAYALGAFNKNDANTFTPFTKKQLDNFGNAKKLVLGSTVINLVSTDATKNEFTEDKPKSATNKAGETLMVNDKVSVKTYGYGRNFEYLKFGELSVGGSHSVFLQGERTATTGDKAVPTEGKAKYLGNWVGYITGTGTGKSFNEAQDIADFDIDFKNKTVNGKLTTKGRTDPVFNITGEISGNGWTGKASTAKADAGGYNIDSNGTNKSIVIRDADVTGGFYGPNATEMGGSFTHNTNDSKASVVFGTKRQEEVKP

[2] = target: T1, Moraxella catarrhalis transferrin binding protein B, C-terminal flag-tag (Moraxella catarrhalis); experiment: pull-down; flag beads with supernatant of E. coli spheroplasts releasing flag-tagged TbpB or AfuA; eluted with 50 mM glycine pH 2.8; western blot with α-E. coli Skp antibody; partner endogenous in the supernatant
[3] = target: iron-loaded human transferrin conjugated to beads (human) (UniProt P02787); experiment: pull-down; spheroplast-secreted TbpB protected from proteinase K by Slam1 proteoliposomes; 1 mM PMSF, dissolved in 0.1% Triton X, incubated with iron-loaded human transferrin-conjugated beads; α-flag blot; only the target purified
[4] = target: iron-loaded human transferrin conjugated to beads (human) (UniProt P02787); experiment: condition: only TbpB left after proteinase K with Bam proteoliposomes (not translocated); pull-down; as a7, but the TbpB left after proteinase K with the negative control Bam proteoliposomes; only the target purified
[5] = target: E. coli SurA with N-terminal 6xHis tag, purified (E. coli) (UniProt P0ABZ6); experiment: pull-down; reciprocal pulldown: 10 μM purified His-tagged chaperone (SurA, Skp or DegP) and 10 μM untagged LolA added during TbpB/HpuA (AfuA control) expression in E. coli spheroplasts; supernatant on Ni-resin 2 hr at 4°C; washed with 50 mM Tris 7, 200 mM NaCl, 10 mM imidazole, 0.1% Triton X-100; eluted with 200 mM imidazole; α-flag western blot; only the target purified
[6] = target: T2, E. coli DegP with N-terminal 6xHis tag, purified (E. coli) (UniProt P0C0V0); experiment: as above
T2 sequence: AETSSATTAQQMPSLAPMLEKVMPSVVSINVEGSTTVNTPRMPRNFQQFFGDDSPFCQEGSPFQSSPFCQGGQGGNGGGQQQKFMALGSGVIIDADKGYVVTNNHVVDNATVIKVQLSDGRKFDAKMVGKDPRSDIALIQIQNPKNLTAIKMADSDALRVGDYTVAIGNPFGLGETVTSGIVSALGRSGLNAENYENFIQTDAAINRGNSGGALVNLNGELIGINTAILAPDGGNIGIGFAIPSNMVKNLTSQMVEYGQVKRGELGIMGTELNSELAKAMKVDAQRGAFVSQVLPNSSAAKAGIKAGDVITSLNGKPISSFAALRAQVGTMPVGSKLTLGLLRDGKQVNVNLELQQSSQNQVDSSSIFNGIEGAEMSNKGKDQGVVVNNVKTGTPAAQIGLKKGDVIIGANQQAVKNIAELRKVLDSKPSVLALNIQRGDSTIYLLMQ

[7] = target: T3, E. coli Skp with N-terminal 6xHis tag, purified (E. coli) (UniProt P0AEU7); experiment: as above
T3 sequence: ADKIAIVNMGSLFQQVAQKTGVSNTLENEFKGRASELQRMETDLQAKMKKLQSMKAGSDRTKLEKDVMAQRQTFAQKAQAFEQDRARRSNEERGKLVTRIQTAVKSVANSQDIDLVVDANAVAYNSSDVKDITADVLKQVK

[8] = target: T1, Moraxella catarrhalis transferrin binding protein B, C-terminal flag-tag (Moraxella catarrhalis); experiment: pull-down; flag beads with supernatant of E. coli spheroplasts releasing flag-tagged TbpB or AfuA; eluted with 50 mM glycine pH 2.8; purified His-tagged LolA added to the spheroplasts, detected with α-his antibody; only the binder purified

Q: “biotinylated human transferrin (from UniProt P02787 20-698)” was tested. Which binding [1] did it give?
A: binds

B1: periplasmic chaperone Skp of E. coli, endogenous (protein, UniProt P0AEU7 21-161)
chain: T3 sequence
Q: B1 was tested. Which binding [2] did it give?
A: binds

B2: Moraxella catarrhalis transferrin binding protein B, C-terminal flag-tag (natural protein)
chain: T1 sequence (chain, lipidated (processed by Lgt, Lsp, and Lnt))
modifications: lipidated (processed by Lgt, Lsp, and Lnt)
Q: With B2 as the molecule, how does the binding [3] read?
A: binds

Q: And the binding [4]?
A: no binding

Q: What about the binding [5] of the same molecule?
A: no binding (tested: 10 μM of each chaperone)

Q: What about the binding [6] of the same molecule?
A: no binding (tested: 10 μM of each chaperone)

Q: What about the binding [7] of the same molecule?
A: binds

B3: E. coli LolA with 6xHis tag, purified (protein, UniProt P61316 22-203)
chain: DAASDLKSRLDKVSSFHASFTQKVTDGSGAAVQEGQGDLWVKRPNLFNWHMTQPDESILVSDGKTLWFYNPFVEQATATWLKDATGNTPFMLIARNQSSDWQQYNIKQNGDDFVLTPKASNGNLKQFTINVGRDGTIHQFSAVEQDDQRSSYQLKSQQNGAVDAAKFTFTPPQGVTVDDQRK
Q: Which binding [8] does the source give for B3 here?
A: binds
